{"source": "paper PMC9574860", "about": "“Chemical Toolkit for PARK7: Potent, Selective, and High-Throughput” (Journal of Medicinal Chemistry, 2022)", "note": "The campaign covered roughly 7,900 compounds. About 400 (5.1%) showed an effect of 50% or more. This is one part of the list."}
{"biological_target": "Parkinson's disease protein 7 (PARK7/DJ1) (human, UniProt Q99497)", "sequence (Q99497 whole entry, looked up, the tested form may be a part)": "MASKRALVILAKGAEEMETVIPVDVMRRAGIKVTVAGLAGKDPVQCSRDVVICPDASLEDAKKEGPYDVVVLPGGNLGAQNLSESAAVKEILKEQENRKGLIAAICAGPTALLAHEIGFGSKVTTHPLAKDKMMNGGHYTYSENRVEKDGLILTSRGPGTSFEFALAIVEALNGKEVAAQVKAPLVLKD", "test": "primary screen, percent inhibition; read as competition with a fluorescent probe by fluorescence polarization; higher = more effect of the substance", "settings": "100 µM", "in_short": "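Covalent fragments at 100 μM final were incubated 2 h with 0.2 μM PARK7, then 20 nM probe JYQ-107 added for a further 2 h. Fluorescence polarization read at 480/520 nm; relative FP loss versus reference controls gave remaining enzyme activity.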", "units": {"Inhibition %": "%"}}
{"smiles": "C=CC(=O)NCCN1CCOC(C)(C)C1", "Inhibition %": 14.1}
{"smiles": "N#Cc1nccnc1N1CCSSCC1", "Inhibition %": 13.3}
{"smiles": "O=C(CCCl)Nc1ccccc1", "Inhibition %": 3.48}
{"smiles": "O=C(CCN1C(=O)CCC1=O)Nc1ccc(F)cc1", "Inhibition %": -0.378}
{"smiles": "CC1(C)OB(C2(N)CC2)OC1(C)C.Cl", "Inhibition %": 3.76}
{"smiles": "CC1CCCCN1C(=O)CCl", "note": "(stereo not shown)", "Inhibition %": 28.9}
{"smiles": "C=CC(=O)NC1COCC1C1CC1", "note": "(stereo not shown)", "Inhibition %": 0.252}
{"smiles": "C=CC(=O)N1CCCC1c1cccc(Cl)c1", "note": "(stereo not shown)", "Inhibition %": 10.4}
{"smiles": "CS(=O)(=O)N1CCCC(Cl)C1", "note": "(stereo not shown)", "Inhibition %": 7.94}
{"smiles": "Cl.O=C(CCl)N1CCN(CC=Cc2ccccc2)CC1", "Inhibition %": 4.23}
{"smiles": "COCc1ncsc1C(=O)Nc1cccc(S(=O)(=O)F)c1", "Inhibition %": 8.52}
{"smiles": "C=CC(=O)N1CCCc2cccc(NC(C)=O)c21", "Inhibition %": 5.74}
{"smiles": "Cc1cn(S(=O)(=O)c2ccc(Cl)c(C)c2)cn1", "Inhibition %": 2.9}
{"smiles": "O=C(O)C1COCCN1C(=O)C=Cc1ccc(Cl)s1", "note": "(stereo not shown)", "Inhibition %": 13.1}
{"smiles": "Cn1cc(C(=O)CCl)cn1", "Inhibition %": 77.2}
{"smiles": "O=C(CCl)N1CCN(c2ncccn2)CC1", "Inhibition %": 91.6}
{"smiles": "O=C1CCC(=O)N1CCC(=O)N1CCc2ccccc21", "Inhibition %": 9.57}
{"smiles": "Cc1ccc(N(CCC#N)C(=O)CCl)cc1", "Inhibition %": 47.6}
{"smiles": "Cc1ccc(CN(C(=O)CCl)C2CC2)cc1", "Inhibition %": 13}
{"smiles": "CC(C)c1nnnn1CC(=O)Nc1ccc(S(=O)(=O)F)cc1", "Inhibition %": 10.1}
{"smiles": "Cl.ClCCc1cn[nH]c1", "Inhibition %": 4.09}
{"smiles": "C=CC(=O)Nc1cnn(CC(=O)N2CCOCC2)c1", "Inhibition %": 34.4}
{"smiles": "CCC1CN(C2CC(C)OC2=O)CCS1", "note": "(stereo not shown)", "Inhibition %": 5.57}
{"smiles": "C=CC(=O)N(C)C1CCN(OC)CC1", "Inhibition %": 15.7}
{"smiles": "N#Cc1cccc(OCC(F)F)n1", "Inhibition %": 1.62}
{"smiles": "C=CC(=O)N(C)C1CCN(c2cnccn2)CC1", "Inhibition %": 12.9}
{"smiles": "CN1CN(C(=O)c2c[nH]c(C#N)c2)CC1=O", "Inhibition %": -4.6}
{"smiles": "C=CCCS(=O)(=O)NC1CN(c2ccc(F)cc2)C1=O", "note": "(stereo not shown)", "Inhibition %": 9.47}
{"smiles": "CCOc1ccc(S(=O)(=O)n2ccnc2CC)cc1C", "Inhibition %": 2.75}
{"smiles": "O=C(O)c1ccc2c(=O)[nH]c(S)nc2c1", "Inhibition %": 11.3}
{"smiles": "C=CC(=O)N1CCOC(C(F)F)C1", "note": "(stereo not shown)", "Inhibition %": 4.48}
{"smiles": "C=CC(=O)N1CCOCCC1C", "note": "(stereo not shown)", "Inhibition %": 10}
{"smiles": "O=c1onc(-c2ccccn2)n1C1C=CCCC1", "note": "(stereo not shown)", "Inhibition %": 5.08}
{"smiles": "COc1ccc(CC2CC(=O)N2)cc1", "note": "(stereo not shown)", "Inhibition %": 16.2}
{"smiles": "CC1(C)OB(c2cc3c(cc2Cl)NC(=O)C3)OC1(C)C", "Inhibition %": 11.3}
{"smiles": "C=CC(=O)N1CCCC1Cc1cccc(F)c1", "note": "(stereo not shown)", "Inhibition %": 10.4}
{"smiles": "N#Cc1ccc(NC2CCc3c(O)cccc32)cn1", "note": "(stereo not shown)", "Inhibition %": 6.94}
{"smiles": "C=CC(=O)N1CC[C@@H](Oc2cccc(Cl)c2)C1", "Inhibition %": 3.35}
{"smiles": "O=C(Oc1cccc2cccnc12)N1CCCCC1", "Inhibition %": 7.91}
{"smiles": "OB(O)c1ccc(OCC2CCOC2)cc1", "note": "(stereo not shown)", "Inhibition %": 8.08}
{"smiles": "CS(=O)(=O)OC1CCN(Cc2ccccc2)C1", "note": "(stereo not shown)", "Inhibition %": 6.92}
{"smiles": "Cc1nccn1S(=O)(=O)c1cc(Cl)ccc1Cl", "Inhibition %": 4.34}
{"smiles": "Cc1cc(C)n(S(=O)(=O)c2cccc(Cl)c2Cl)n1", "Inhibition %": 2.67}
{"smiles": "O=C(CCl)Nc1cc(F)ccc1C(=O)O", "Inhibition %": 32.7}
{"smiles": "O=C(CCl)c1ccns1", "Inhibition %": 95.1}
{"smiles": "O=c1c2ccccc2nc(S)n1CCCOC1CCOC1", "note": "(stereo not shown)", "Inhibition %": 6.16}
{"smiles": "C=CC(=O)Nc1ccnn1CC1CCOC1", "note": "(stereo not shown)", "Inhibition %": 6.69}
{"smiles": "N#Cc1nc(NCCc2csc(=O)[nH]2)ccc1C(F)(F)F", "Inhibition %": 13.7}
{"smiles": "O=C(CCl)N1N=C(c2ccco2)CC1c1ccco1", "note": "(stereo not shown)", "Inhibition %": 9.04}
{"smiles": "Clc1ccc(Cl)c(OCC2CO2)c1", "note": "(stereo not shown)", "Inhibition %": 5.37}
{"smiles": "CNc1nc(S)nc2ccccc12", "Inhibition %": 3.7}
{"smiles": "O=S(=O)(F)c1cccc(Br)c1", "Inhibition %": 16.4}
{"smiles": "C=CC(=O)Nc1cccc(NC(C)=O)n1", "Inhibition %": -0.654}
{"smiles": "C=CC(=O)NC1(C)CCC(C)(C)CC1", "Inhibition %": 3.82}
{"smiles": "C=CC(=O)N1CCN(c2cnn(C)c2)C(=O)C1", "Inhibition %": 7.82}
{"smiles": "CNc1ncc(B2OC(C)(C)C(C)(C)O2)cn1", "Inhibition %": 1.74}
{"smiles": "N#Cc1cccc(C2(NC(=O)[C@@H]3CNC(=O)O3)CC2)c1", "Inhibition %": 6.29}
{"smiles": "CC1CC(Sc2ccccc2F)C(=O)O1", "note": "(stereo not shown)", "Inhibition %": -0.183}
{"smiles": "C=CC(=O)N1CC(CN2CCOCC2)C1", "Inhibition %": 8.95}
{"smiles": "CC1(C)OB(c2ccc(C#N)c(Cl)c2)OC1(C)C", "Inhibition %": 26.1}
{"smiles": "O=C(CCl)c1ccc2[nH]c(=O)oc2c1", "Inhibition %": 2.68}
{"smiles": "O=C(CCl)NC(=O)c1ccco1", "Inhibition %": 22.8}
{"smiles": "N#CC(C(=O)CCl)=C(c1ccc(F)cc1)N1CCOCC1", "Inhibition %": 3.9}
{"smiles": "CCOc1ccc(S(=O)(=O)n2nc(C)cc2C)cc1C", "Inhibition %": 7.03}
{"smiles": "CC1CC1c1ccc(C=CC(=O)N2CCNC(=O)C2)o1", "note": "(stereo not shown)", "Inhibition %": -1.45}
{"smiles": "COCc1ccc(CNC(=O)CCl)cc1", "Inhibition %": 6.87}
{"smiles": "COc1ccc(S(=O)(=O)n2nc(C)cc2C)cc1C", "Inhibition %": 5.55}
{"smiles": "C=CC(=O)NCC1CCCC(F)C1", "note": "(stereo not shown)", "Inhibition %": 4.98}
{"smiles": "CC1CC(Sc2ncnc3ccccc23)C(=O)O1", "note": "(stereo not shown)", "Inhibition %": 4.79}
{"smiles": "O=C(CCl)c1ccc2[nH]c(=O)[nH]c2c1", "Inhibition %": 63.2}
{"smiles": "C=CC(=O)N1CCC(c2cccc(Cl)c2)C1", "note": "(stereo not shown)", "Inhibition %": 10.2}
{"smiles": "C=CC(=O)Nc1ccccc1CN1CCSCC1", "Inhibition %": 10.9}
{"smiles": "CN(C)c1cccc(C2CCCN2C2CCOC2=O)c1", "note": "(stereo not shown)", "Inhibition %": 3.13}
{"smiles": "C=CC(=O)Nc1ccc2c(C)n(C)nc2c1", "Inhibition %": 22.4}
{"smiles": "C=CC(=O)N1CC2C3COCC3C2C1", "note": "(stereo not shown)", "Inhibition %": 10.7}
{"smiles": "O=C(CCl)NC(=O)Nc1ccc2c(c1)OCCCO2", "Inhibition %": 7.15}
{"smiles": "C=C(C)Cn1c(-c2ccccn2)noc1=O", "Inhibition %": 5.56}
{"smiles": "O=c1cc(CS)nc2ccccn12", "Inhibition %": 17.8}
{"smiles": "C=CC(=O)NCc1cc2n(n1)CCCC2", "Inhibition %": 10.1}
{"smiles": "N#CC(=Cc1cccnc1)c1ccccn1", "Inhibition %": 38.4}
{"smiles": "C=CC(=O)N1CCSC(C)(C)CC1", "Inhibition %": 11.7}
{"smiles": "O=C1CC(c2ccccc2)S(=O)(=O)N1", "note": "(stereo not shown)", "Inhibition %": 5.4}
